Source: patent US20200377563A1 (Pieris, published 2020)

Key:
human IL-17A [1] = target: T1, human IL-17A (human, UniProt Q16552 24-155, limits assumed); assay: competition ELISA (MSD), biotinylated hIL-17A pre-incubated with binder, free hIL-17A captured on coated hIL-17RA
T1 construct: Biotinylated in the ELISA formats; also called hIL-17A; IL-17 A/A

human IL-17A [2] = target: T1, human IL-17A; assay: cell-based or functional assay
T1 sequence (Q16552 24-155 limits assumed): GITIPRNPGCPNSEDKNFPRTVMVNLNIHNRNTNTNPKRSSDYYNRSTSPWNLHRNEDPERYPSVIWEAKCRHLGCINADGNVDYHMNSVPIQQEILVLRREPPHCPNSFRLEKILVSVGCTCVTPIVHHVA

- IC50 (human IL-17A [1]): 0.04 nM
- G-CSF secretion (EC50, IL17A), n = 3 (human IL-17A [2]): 0.05 nM
B1: fusion protein of SEQ ID NO: 13 (Fc fusion)
chain: [letters of human IgG1 Fc not shown]GGGGSGGGGSASDEEIQDVSGTWYLKAMTVDFWCSGIHEESVTPMTLTTLEGGNLEAKVTMDIEGFLQEFKAVLEKTDEPGKYTADGGKHVAYIIRSRVKDHYIFYSEGDCPGPVPGVWLVGRDPKNNLEALEDFEKAAGARGLSTESILIPRQSETSSPGSDGGGGSGGGGSASDEEIQDVSGTWYLKAMTVDFWCSGIHEESVTPMTLTTLEGGNLEAKVTMDIEGFLQEFKAVLEKTDEPGKYTADGGKHVAYIIRSRVKDHYIFYSEGDCPGPVPGVWLVGRDPKNNLEALEDFEKAAGARGLSTESILIPRQSETSSPGSD
